Laboratory results: PubChem BioAssay AID651820 (National Center for Advancing Translational Sciences (NCATS), 2012)
Hit rate of the full screen: of about 340,000 compounds, about 12,000 (3.5%) were called active. This list was built around the results that the source calls inconclusive (neither active nor inactive); the mix of calls is not that of the screen. The call rests on the fitted dose curve; in most records, active means well fitted inhibition curve with a large enough effect; inconclusive means small, poorly fitted or top-dose-only effect, or another doubt; inactive means no such curve, though single readings can be large or run the other way. Potencies of inconclusive entries are left out as doubtful fits.
On the % scale 0 is the no-effect control and ±100 the full control effect; potency means the concentration at half of the fitted maximal effect; tags describe the fitted curve by direction and shape.

Assay: qHTS Assay for Inhibitors of Hepatitis C Virus (HCV)
Details: Huh7.5.1 HCVcc-Cre (HCVcc is cell-culture hepatitis C virus) infection, luciferase reporter, 44 h; activity change, negative = inhibition: at 41.8 µM (top of the series) unless noted
Method in brief: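 Infectious HCVcc-Cre (~0.5 moi) was added to cells just after compound, with cells seeded 4 h earlier at 1,000 per well. Luciferase activity after 44 h culture reported infection; substrate was incubated 15 min at room temperature before reading.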
For `CCn1cc(C(=O)NCCCN2CCCCCC2)c(=O)c2cc(S(=O)(=O)N3CCc4ccccc4C3)ccc21`, the Potency was inconclusive [inhibitor, partial curve]. For `COc1ccc2cc(CCNC(=O)c3cc4ccccc4o3)c(=O)[nH]c2c1`, the Potency was inconclusive [inhibitor, partial curve]. In the case of `COc1nc(Nc2ccc([N+](=O)[O-])cc2)nc(NC2CCCCC2)n1`, the Potency was inconclusive [inhibitor, partial curve]. In the case of `O=C(COC(=O)c1ccc(O)cc1O)NC12CC3CC(CC(C3)C1)C2`, the Potency was active: 12.6 µM. In the case of `CCOC(=O)C1CCN(C(=O)c2ccc3nc(-c4ccc(OC)cc4)c(-c4ccc(OC)cc4)nc3c2)CC1`, the Potency was active: 25.1 µM. With `CCc1cc2c(-n3nc(C)cc3C)ncnc2s1` the Potency was inconclusive [inhibitor, single point]. In the case of `CC(=O)Nc1ccc(NC(=O)c2cc(C3CC3)nc3c2cnn3C(C)C)cc1`, the Potency was active: 10 µM. With `CC(C)CCNC(=O)NC(=O)CSc1ncccn1` the “activity change, negative = inhibition” value was inactive: -3.48%. For `Cc1cc(C(=O)OCC(=O)c2c(N)n(C)c(=O)n(C)c2=O)c(C)o1`, the Potency was inconclusive [inhibitor, partial curve, poor fit]. For `O=C1[C@H](Cc2ccccc2)NCC=CC[C@H](c2ccco2)N1Cc1ccccc1`, the Potency was inconclusive [inhibitor, single point]. For `COc1ccc(C)cc1-n1nnnc1SCC(=O)NC1CC1`, the “activity change, negative = inhibition” value was inactive: -26.5%. In the case of `CC1(C)NC(=O)N(CC(O)CN(c2cccc([N+](=O)[O-])c2)S(=O)(=O)c2ccccc2)C1=O` (stereo not given), the “activity change, negative = inhibition” value was inactive: 13%. For `O=C1CCc2cc(S(=O)(=O)Nc3ccc(F)cc3)ccc2N1`, the Potency was inconclusive [inhibitor, partial curve]. With `COc1cccc(C2=Nc3cccc4cccc(c34)N2)c1` the Potency was inconclusive [inhibitor, single point]. For `CCCCCOc1ccc(NC(=O)C(=O)NCC2CCCN2CC)cc1` (stereo not given), the Potency was inconclusive [inhibitor, partial curve]. With `Cc1ccc(NS(=O)(=O)c2cccc(C(=O)NCC3CCCO3)c2)cc1` (stereo not given) the Potency was inconclusive [inhibitor, single point]. For `O=C(NCc1ccccc1)c1cccc(COc2cc(Cl)ccc2Cl)c1`, the Potency was inconclusive [inhibitor, single point]. In the case of `CCNC(=O)CN(c1ccc(F)cc1)S(=O)(=O)c1ccc2c(c1)OCCO2`, the “activity change, negative = inhibition” value was inactive: 14.7%. With `COc1ccc(C2=NN3C(C2)c2ccccc2OC32C(=O)N(C)c3ccccc32)cc1` (stereo not given) the “activity change, negative = inhibition” value was inactive: -10.2%. In the case of `COC(=O)c1ccccc1NC(=O)Nc1cc(C(C)(C)C)on1`, the Potency was inconclusive [inhibitor, single point]. With `CCCCc1nnc(NC(=O)Cc2ccc(S(=O)(=O)N3CCOCC3)s2)s1` the “activity change, negative = inhibition” value was inactive: 1.22%. With `O=C(CSc1nnc(COc2cccc3ccccc23)o1)N1c2ccccc2CCc2ccccc21` the Potency was inconclusive [inhibitor, partial curve, poor fit]. With `CCOCc1c(C(=O)OCC(=O)/C(C#N)=C(\C)N)oc2ccccc12` the Potency was inconclusive [inhibitor, partial curve, poor fit]. For `Cc1cnc(C(=O)Nc2ccc(C)c(S(=O)(=O)N3CCCCCC3)c2)cn1`, the “activity change, negative = inhibition” value was inactive: -18.2%. In the case of `CN1CCN(CC(=O)Nc2cc(N(C)C)nc3ccccc23)CC1`, the Potency was inconclusive [inhibitor, single point]. In the case of `C#CCOCCOCCOCCNc1nc(N2CCN(C(=O)[C@H]([C@@H](C)CC)n3cc(CCCN=C(N)N)nn3)CC2)nc(N2CCN(C(=O)[C@H](CCCCN)n3cc(CCC(=O)O)nn3)CC2)n1`, the “activity change, negative = inhibition” value was inactive: 15.1%. In the case of `CCN(/N=C/c1ccc(Cl)cc1)c1cc(=O)n(C)c(=O)[nH]1`, the “activity change, negative = inhibition” value was inactive: 2.92%. With `CCOC(=O)NC(=O)CSc1nc(-c2ccc(C)c(C)c2)cn1-c1ccccc1` the Potency was inconclusive [inhibitor, partial curve]. In the case of `CCOc1ccccc1NC(=O)COc1coc(CN2CCc3ccccc32)cc1=O`, the Potency was active: 7.94 µM. In the case of `CC1(C)CSC(=NCc2ccccc2)N1`, the Potency was active: 10 µM. With `Cc1ccc(S(=O)(=O)N(C)c2ccc(OCC(=O)N3CCCC(C(F)(F)F)C3)cc2)cc1` (stereo not given) the Potency was inconclusive [inhibitor, single point]. In the case of `FC(F)(F)c1cc(CCN2CCNC[C@@H]2c2ccccc2)cc(C(F)(F)F)c1`, the Potency was inconclusive [inhibitor, single point]. For `COc1ccc(OC)c2c(C)cc(C)nc12`, the Potency was inconclusive [inhibitor, single point]. In the case of `CCN1CCN(c2cc(C)c3cc(NC(=S)N4CC(C)CC(C)C4)ccc3n2)CC1` (stereo not given), the Potency was inconclusive [inhibitor, full curve]. In the case of `Cc1ccc(-n2sc3ccccc3c2=O)cc1`, the Potency was inconclusive [inhibitor, single point]. With `COc1nnc(-c2ccc(N3CCOCC3)c(NC(=O)c3ccco3)c2)c2ccccc12` the Potency was inconclusive [inhibitor, single point]. For `CCCOc1ccc(N2C(=O)CC(NCc3cccs3)C2=O)cc1` (stereo not given), the “activity change, negative = inhibition” value was inactive: 8.96%. For `O=C(NCC#CCOCc1ccccc1)c1ccccc1`, the Potency was inconclusive [inhibitor, single point]. With `CCn1ccnc1CN1CCc2c([nH]c3ccccc23)C1C(C)(C)C` (stereo not given) the Potency was inconclusive [inhibitor, single point]. In the case of `O=C(Nc1ccc(N2CCOCC2)cc1)c1cc2c(s1)CCCC2`, the Potency was active: 3.98 µM. For `Cc1ccc2nc(C)/c(=N\O)c(C)nc2c1`, the “activity change, negative = inhibition” value was inactive: 5.78%. For `COC(=O)[C@@H]1[C@@H](C(=O)OC)C2(c3ccccc3-c3ccccc32)N(c2ccc(Cl)cc2)N1C#N`, the Potency was active: 1.78 µM. With `Clc1ccc(OCCSc2ncccn2)c2ccccc12` the Potency was inconclusive [inhibitor, single point]. In the case of `Cc1cc(NC(=O)c2cccc3ccccc23)cc(C)c1OCC(=O)N1CCOCC1`, the “activity change, negative = inhibition” value was inactive: -22.2%. With `COC(=O)c1ccccc1NC(=O)/C=C/c1ccco1` the Potency was inconclusive [inhibitor, partial curve].
